{"source": "paper PMC4336329", "about": "(PLoS ONE, 2015)", "note": "The whole screen tested about 310,000 compounds, of which about 14,000 (4.5%) showed an effect of 50% or more. Effects have a minus sign here. The list shows a part of the results.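 Also: peak tail current of the secondary pulse compared with the same well before compound.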"}
{"target": "human ether-à-go-go-related gene (hERG) potassium channel (human, UniProt Q12809)", "sequence (Q12809 whole entry, looked up)": "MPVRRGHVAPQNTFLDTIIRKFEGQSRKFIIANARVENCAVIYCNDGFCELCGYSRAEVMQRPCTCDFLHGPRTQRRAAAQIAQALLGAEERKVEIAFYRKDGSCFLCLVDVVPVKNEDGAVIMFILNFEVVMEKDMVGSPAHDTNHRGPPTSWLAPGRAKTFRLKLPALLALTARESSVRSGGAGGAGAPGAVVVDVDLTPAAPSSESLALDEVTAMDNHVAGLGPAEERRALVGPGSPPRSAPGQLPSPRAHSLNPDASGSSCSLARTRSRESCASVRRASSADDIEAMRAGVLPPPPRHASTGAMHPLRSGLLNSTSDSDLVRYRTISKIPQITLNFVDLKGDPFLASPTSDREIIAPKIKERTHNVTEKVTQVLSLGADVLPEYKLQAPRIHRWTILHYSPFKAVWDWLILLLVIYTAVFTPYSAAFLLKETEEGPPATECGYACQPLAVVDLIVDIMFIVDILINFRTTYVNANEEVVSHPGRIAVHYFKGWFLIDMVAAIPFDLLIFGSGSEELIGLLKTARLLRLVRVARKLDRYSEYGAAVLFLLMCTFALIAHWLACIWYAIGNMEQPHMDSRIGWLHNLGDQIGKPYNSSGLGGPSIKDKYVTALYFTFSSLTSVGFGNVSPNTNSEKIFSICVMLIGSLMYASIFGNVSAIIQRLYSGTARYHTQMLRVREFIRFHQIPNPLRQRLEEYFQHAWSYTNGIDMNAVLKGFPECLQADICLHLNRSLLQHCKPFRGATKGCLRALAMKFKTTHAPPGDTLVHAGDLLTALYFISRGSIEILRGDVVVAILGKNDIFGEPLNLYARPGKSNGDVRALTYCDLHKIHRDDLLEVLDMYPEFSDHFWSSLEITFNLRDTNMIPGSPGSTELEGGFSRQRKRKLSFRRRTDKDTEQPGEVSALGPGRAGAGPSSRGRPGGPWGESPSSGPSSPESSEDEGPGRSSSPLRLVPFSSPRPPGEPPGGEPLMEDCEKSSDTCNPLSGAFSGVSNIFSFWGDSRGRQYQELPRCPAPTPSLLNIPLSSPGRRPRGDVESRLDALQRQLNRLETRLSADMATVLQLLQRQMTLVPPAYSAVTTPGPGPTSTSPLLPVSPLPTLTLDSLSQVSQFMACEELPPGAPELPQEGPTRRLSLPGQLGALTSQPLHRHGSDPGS", "assay": "primary screen, population patch clamp on CHO cells stably expressing hERG", "units": {"hERG current change (%, negative = inhibition) at 10uM": "%"}}
{"smiles": "CC1CCc2c(sc(N)c2C(N)=O)C1", "note": "(centres unmarked)", "hERG current change (%, negative = inhibition) at 10uM": -4.13}
{"smiles": "O=C(c1cccc(S(=O)(=O)N2CCCCC2)c1)N1CCc2ccccc21", "hERG current change (%, negative = inhibition) at 10uM": -29.5}
{"smiles": "COc1ccc(OCC(=O)OC(C)CN2CCCCC2)cc1", "note": "(centres unmarked)", "hERG current change (%, negative = inhibition) at 10uM": 12.1}
{"smiles": "COc1ccc(S(=O)(=O)N2CCC(C(=O)NC3CC3)CC2)cc1Cl", "hERG current change (%, negative = inhibition) at 10uM": 7.7}
{"smiles": "COc1ccc(C2Nc3ccccc3C(=O)N2NS(=O)(=O)c2ccc(C)cc2)c(OC)c1", "note": "(centres unmarked)", "hERG current change (%, negative = inhibition) at 10uM": 3.22}
{"smiles": "O=C1C(Cl)=C(N2CCOCC2)C(=O)N1c1ccc(Br)cc1", "hERG current change (%, negative = inhibition) at 10uM": 14.8}
{"smiles": "Cc1cccc(OCCCn2c(=O)oc3ccccc32)c1", "hERG current change (%, negative = inhibition) at 10uM": -1.72}
{"smiles": "O=C(Nc1ccc(N2CCOCC2)cc1)C1CC(=O)N(c2ccc(F)cc2)C1", "note": "(centres unmarked)", "hERG current change (%, negative = inhibition) at 10uM": 5.93}
{"smiles": "CC(C)n1c(=O)c(C=Nc2ccc(Br)cc2)c(O)n(Cc2ccco2)c1=O", "hERG current change (%, negative = inhibition) at 10uM": 9.14}
{"smiles": "COc1ccc(CN2CCN(Cc3ccccc3F)CC2)cc1.O=C(O)C(=O)O", "hERG current change (%, negative = inhibition) at 10uM": -43.2}
{"smiles": "Cn1nnnc1SCc1nc2ccccc2[nH]1", "hERG current change (%, negative = inhibition) at 10uM": 0.0269}
{"smiles": "CC(=O)c1cccc(NC(=O)c2nccnc2C(=O)O)c1", "hERG current change (%, negative = inhibition) at 10uM": 5.71}
{"smiles": "COc1ccc(C(=O)OCC(=O)NCCCc2ccccc2)c(OC)c1", "hERG current change (%, negative = inhibition) at 10uM": 4.47}
{"smiles": "COc1ccc(Nc2cc(C)c3ccc(O)cc3n2)cc1", "hERG current change (%, negative = inhibition) at 10uM": -58.4}
{"smiles": "O=c1[nH]c(CO)nc2c1oc1ccccc12", "hERG current change (%, negative = inhibition) at 10uM": 14.2}
{"smiles": "O=C(NC1CCCCC1)NC12CC3CC(CC(C3)C1)C2", "hERG current change (%, negative = inhibition) at 10uM": 19.8}
{"smiles": "COc1cc(NC(=S)NC2CC(C)(C)NC(C)(C)C2)cc(OC)c1", "hERG current change (%, negative = inhibition) at 10uM": 2.03}
{"smiles": "CCOC(=O)Cc1c(C)[nH]c(=S)[nH]c1=O", "hERG current change (%, negative = inhibition) at 10uM": 24.8}
{"smiles": "CC(C)CCOc1ccc(C(=O)NN2C(=O)NC3(CCCCC3)C2=O)cc1", "hERG current change (%, negative = inhibition) at 10uM": 4.04}
{"smiles": "CN(C)C(=O)NC(Nc1ccc(Cl)cc1Cl)C(Cl)(Cl)Cl", "note": "(centres unmarked)", "hERG current change (%, negative = inhibition) at 10uM": -18.9}
{"smiles": "CCOC(=O)N1CCN(C(=O)C(NC(=O)c2ccc(CC)cc2)C(C)C)CC1", "note": "(centres unmarked)", "hERG current change (%, negative = inhibition) at 10uM": -19.5}
{"smiles": "COc1ccccc1CCC(=O)OCC(=O)Nc1c(Br)cc(C)cc1Br", "hERG current change (%, negative = inhibition) at 10uM": 8.68}
{"smiles": "CC(C)(C)OC(=O)N1CCC(C(=O)O)CC1", "hERG current change (%, negative = inhibition) at 10uM": 0.816}
{"smiles": "CCOC(=O)CC(NC(=O)c1ccco1)c1ccc(OC)cc1", "note": "(centres unmarked)", "hERG current change (%, negative = inhibition) at 10uM": 7.84}
{"smiles": "Clc1ccccc1CONc1ncnc2nonc12", "hERG current change (%, negative = inhibition) at 10uM": 2.54}
{"smiles": "COc1ccc(C2C3=C(Nc4ncnn42)c2ccccc2CCC3)cc1", "note": "(centres unmarked)", "hERG current change (%, negative = inhibition) at 10uM": -7.09}
{"smiles": "CCCc1nc(SCC(=O)Nc2ccccc2)c2c(=O)n(C)c(=O)n(C)c2n1", "hERG current change (%, negative = inhibition) at 10uM": 5.44}
{"smiles": "CCOC(=O)c1c(-c2ccccc2)csc1NC(=O)CSc1nnnn1C", "hERG current change (%, negative = inhibition) at 10uM": -22.7}
{"smiles": "O=C(Nc1ccccc1C(=O)NCc1cccnc1)c1ccccc1Cl", "hERG current change (%, negative = inhibition) at 10uM": -8.28}
{"smiles": "O=C(Nc1ccccc1)Nc1cc(S(=O)(=O)N2CCOCC2)ccc1N1CCCC1", "hERG current change (%, negative = inhibition) at 10uM": -71}
{"smiles": "COC(=O)c1cccc(NC(=O)C(C)(C)C)c1", "hERG current change (%, negative = inhibition) at 10uM": 24.2}
{"smiles": "CC(=O)NCCOc1cccc(OCCNC(C)=O)c1", "hERG current change (%, negative = inhibition) at 10uM": -8.16}
{"smiles": "Cn1c(/C(C#N)=C/c2ccncc2)nc2ccccc21", "hERG current change (%, negative = inhibition) at 10uM": -19.2}
{"smiles": "O=C(OC1CCN(c2ncc(C(F)(F)F)cc2Cl)CC1)c1ccc(Cl)cc1", "hERG current change (%, negative = inhibition) at 10uM": 8.55}
{"smiles": "COC(=O)[C@H](CC(C)C)NC(=O)N1CCN(c2cccc(C(F)(F)F)c2)CC1", "hERG current change (%, negative = inhibition) at 10uM": 2.74}
{"smiles": "OC(CN1CCN(c2ccccn2)CC1)Cn1c2ccc(Cl)cc2c2cc(Cl)ccc21", "note": "(centres unmarked)", "hERG current change (%, negative = inhibition) at 10uM": 0.599}
{"smiles": "CC1(C)Cc2ccccc2-c2n[nH]c(=S)n21", "hERG current change (%, negative = inhibition) at 10uM": 0.26}
{"smiles": "O=C(Nc1ccc(Br)cn1)c1cccc2ccccc12", "hERG current change (%, negative = inhibition) at 10uM": 12.2}
{"smiles": "Br.N=C1c2ccccc2CN1NC(=O)COc1ccc(Cl)cc1", "hERG current change (%, negative = inhibition) at 10uM": -50.4}
{"smiles": "COC(=O)c1cc(OC)c(OC)cc1NC(=O)CCc1ccc(C)o1", "hERG current change (%, negative = inhibition) at 10uM": 2.64}
{"smiles": "COC(=O)c1cc(S(=O)(=O)NCC2CCN(Cc3cc(C)ccc3C)CC2)cn1C", "hERG current change (%, negative = inhibition) at 10uM": -27.5}
{"smiles": "CC(=O)N1CCN(c2ccc(Nc3nc(C)nc4c3oc3ccccc34)cc2)CC1.Cl", "hERG current change (%, negative = inhibition) at 10uM": -51.3}
{"smiles": "COc1ccc(S(=O)(=O)N2CCSC2c2ccc(OC)c(OC)c2)cc1", "note": "(centres unmarked)", "hERG current change (%, negative = inhibition) at 10uM": -6.55}
{"smiles": "CCSc1nnc(NC(=O)c2ccccn2)s1", "hERG current change (%, negative = inhibition) at 10uM": -0.0332}
{"smiles": "COc1cc(C(=O)NC(CCSC)C(=O)OCC(=O)C(C)(C)C)cc(OC)c1OC", "note": "(centres unmarked)", "hERG current change (%, negative = inhibition) at 10uM": 7.51}
{"smiles": "Cc1ccc(-n2[nH]c(C)c(C=NC34CN5CN(CN(C5)C3)C4)c2=O)cc1C", "hERG current change (%, negative = inhibition) at 10uM": 4.05}
{"smiles": "COc1nccc(C(F)(F)F)c1C(=O)NC(=O)Nc1ccccc1", "hERG current change (%, negative = inhibition) at 10uM": -8.51}
{"smiles": "CCCn1c2ccccc2c2cnn(CC(=O)N3CCOCC3)c(=O)c21", "hERG current change (%, negative = inhibition) at 10uM": -13.7}
{"smiles": "O=C(Nc1ccc2c(c1)S(=O)(=O)N=C1CCCCCN12)c1ccccc1Cl", "hERG current change (%, negative = inhibition) at 10uM": 3.13}
{"smiles": "O=c1c(F)cn(C2CCCO2)c(=O)n1Cc1ccccc1Cl", "note": "(centres unmarked)", "hERG current change (%, negative = inhibition) at 10uM": 9.38}
{"smiles": "CC1CCc2c(sc3nc(CN4CCOCC4)nc(Sc4ccccc4)c23)C1", "note": "(centres unmarked)", "hERG current change (%, negative = inhibition) at 10uM": 15.5}
{"smiles": "O=C(CS(=O)(=O)c1c[nH]c2ccccc12)N1CCc2ccccc21", "hERG current change (%, negative = inhibition) at 10uM": -20.3}
{"smiles": "CC(C)(C)n1cnc(C(N)=O)c1N", "hERG current change (%, negative = inhibition) at 10uM": 19}
{"smiles": "CCOC(=O)Cn1nc(C)n(-c2ccc(C)cc2)c1=O", "hERG current change (%, negative = inhibition) at 10uM": 5.9}
{"smiles": "COc1ccc(CCN2C(=O)C(Oc3ccccc3)C2c2ccc3c(c2)OCO3)cc1", "note": "(centres unmarked)", "hERG current change (%, negative = inhibition) at 10uM": -1.84}
{"smiles": "O=C(CN1C(=O)CSc2ccccc21)NC1CCCC1", "hERG current change (%, negative = inhibition) at 10uM": 0.766}
{"smiles": "O=C(Nc1cc(Cl)ccc1-n1cncn1)c1ccc([N+](=O)[O-])s1", "hERG current change (%, negative = inhibition) at 10uM": -27.9}
{"smiles": "Cc1cc(N/N=C/c2ccncc2)c([N+](=O)[O-])cc1[N+](=O)[O-]", "hERG current change (%, negative = inhibition) at 10uM": 7.99}
{"smiles": "COc1ccc(C(=O)CC(=O)C(=O)Nc2ccccc2)cc1", "hERG current change (%, negative = inhibition) at 10uM": 12.1}
